Results on 26 compounds are retold here after PubChem BioAssay AID1259407 (Chemical Carcinogenesis Research Information System (CCRIS), 2018).

“Also recorded” adds a separate entry of the source. For part of its entries the source gives two or more results. The list is limited to them. The rule behind the calls is not given here. The source may hold further records. Values given together do not match, cause unknown; some may be repeats, others may stem from another dose, organism or construct than stated. What stands in brackets tells the records apart. A, B and so on number the origins entry by entry. Marks such as (2×) say how often a value occurs here.

This data set relates to CCRIS mutagenicity, Ames/micronucleus/aberration tests. Description: CCRIS mutagenicity studies.
Setting [1] is: Test System: AMES SALMONELLA TYPHIMURIUM, Strain/Indicator: TA98, Metabolic Activation: RAT, LIVER, S-9, AROCLOR 1254, Method: STANDARD PLATE.
The mark [2] stands for this setting: End Point: IN VITRO CHROMOSOMAL ABERRATIONS, Test System: CHL CELLS, Metabolic Activation: NONE.
The mark [3] stands for this setting: Test System: AMES SALMONELLA TYPHIMURIUM, Strain/Indicator: TA98, Metabolic Activation: NONE, Method: STANDARD PLATE.
Setting [4] is: Test System: AMES SALMONELLA TYPHIMURIUM, Strain/Indicator: TA100, Metabolic Activation: NONE, Method: STANDARD PLATE.
The mark [5] stands for this setting: Test System: AMES SALMONELLA TYPHIMURIUM, Strain/Indicator: TA100, Metabolic Activation: RAT, LIVER, S-9, AROCLOR 1254, Method: STANDARD PLATE.
Where [6] appears, read: Test System: AMES SALMONELLA TYPHIMURIUM, Strain/Indicator: TA98, Metabolic Activation: NONE, Method: PREINCUBATION
Where [7] appears, read: Test System: E. COLI, Strain/Indicator: WP2 UVRA, Metabolic Activation: RAT, LIVER, S-9, AROCLOR 1254, Method: STANDARD PLATE.

For the compound `c1ccc(Nc2ccc(Nc3ccccc3)cc2)cc1`, under “End Point: IN VITRO CHROMOSOMAL ABERRATIONS, Test System: CHINESE HAMSTER LUNG CELLS (CHL), Metabolic Activation: NONE”, the mutagenic call was “active; positive (structural changes); also recorded: active; positive (structural changes); authors report results as equivocal”. Take `O=[N+]([O-])c1cc([As](=O)(O)O)ccc1O`: the mutagenic call (End Point: IN VITRO CHROMOSOMAL ABERRATIONS, Test System: CHO CELLS, Metabolic Activation: NONE) was “inactive; negative; testing limited by solubility of the chemical [study A]; also recorded: inactive; negative [study B]”. As to `[O]=[V](=[O])[OH]`, the mutagenic call (Test System: CHINESE HAMSTER V-79, Strain/Indicator: V-79/6-THIOGUANINE, Metabolic Activation: NONE) is “active; positive [study A] and inactive; negative [study A] and inactive; negative [study B]”.

With `CC(C)(C)C(=O)C(Oc1ccc(Cl)cc1)n1ccnc1` (stereo not given), the mutagenic call (Test System: Mouse lymphoma L5178Y/TK+/- cells, Strain/Indicator: WP2 uvrA (pKM101), Metabolic Activation: None, Method: Suspension/plate) was “inactive; negative and active; positive”.

Turning to `Nc1ccc([N+](=O)[O-])c(O)c1`, the mutagenic call reads like this: under setting [1], “inactive; negative and active; positive”; (Test System: AMES SALMONELLA TYPHIMURIUM, Strain/Indicator: TA1538, Metabolic Activation: RAT, LIVER, S-9, AROCLOR 1254, Method: STANDARD PLATE) “inactive; negative and active; positive”. With `ClCCBr`, the mutagenic call under setting [2] is “active; positive (structural changes) (2×) and inactive; negative”.

With `COc1cccc2c1ccc1c(C(=O)O)cc3c(c12)OCO3`, the mutagenic call under setting [3] was “inactive; negative [study A] and inactive; negative [study B] and active; positive [study C]”; the mutagenic call under setting [4] was “inactive; negative [study A] and inactive; negative [study B] and active; positive [study C]”; the mutagenic call (Test System: AMES SALMONELLA TYPHIMURIUM, Strain/Indicator: TA1537, Metabolic Activation: NONE, Method: STANDARD PLATE) is “inactive; negative [study A] and active; positive [study B]”. On to `CN(C)c1ccc(N=Nc2ccccc2)cc1`, for which, where the note is “Test System: AMES SALMONELLA TYPHIMURIUM, Strain/Indicator: TA100, Metabolic Activation: RAT, LIVER, S-9, AROCLOR 1254 (10%), Method: PREINCUBATION”, the mutagenic call is “inactive; negative and active; positive”. Consider `c1ccc2c(c1)ccc1[nH]c3ccc4ccccc4c3c12`, for which the mutagenic call runs as follows: (Test System: AMES SALMONELLA TYPHIMURIUM, Strain/Indicator: TA100, Metabolic Activation: RAT, LIVER, S-9, 3-METHYLCHOLANTHRENE, Method: STANDARD PLATE) “inactive; negative [study A] and active; positive [study B]”; under setting [5], “active; positive [study A] and inactive; negative [study B]”; (Test System: AMES SALMONELLA TYPHIMURIUM, Strain/Indicator: TM677, Method: PREINCUBATION) “inactive; negative and active; positive”. Consider `COc1cc(COC(=O)CCCCCCC(C)C)ccc1O`, for which the mutagenic call (End Point: In vitro chromosomal aberrations, Test System: Chinese hamster lung (CHL/IU) cells, Metabolic Activation: None) was “inactive; negative (2×) and active; positive only at 194 ug/ml”.

Take `O=C1c2cccc(O)c2C(=O)c2c(O)cc(CO)cc21`: the mutagenic call by setting is: under setting [6], “inactive; negative [study A] and active; positive [study B]”; under setting [1], “inactive; negative [study A] and active; positive [study B]”. In the case of `[O-]/[N+](=N\O)c1ccccc1`, the mutagenic call by setting is: (Test System: AMES SALMONELLA TYPHIMURIUM, Strain/Indicator: TA98, Metabolic Activation: HAMSTER, LIVER, S-9, Method: STANDARD PLATE) “inactive; negative [1 to 100 µg/plate] and active; positive [10 to 1000 µg/plate]”; (Test System: AMES SALMONELLA TYPHIMURIUM, Strain/Indicator: TA1538, Metabolic Activation: MOUSE, LIVER, S-9, AROCLOR 1254, Method: STANDARD PLATE) “inactive; negative [0.3 to 1000 µg/plate] and active; positive [1 to 1000 µg/plate]”; (Test System: AMES SALMONELLA TYPHIMURIUM, Strain/Indicator: TA1538, Metabolic Activation: MOUSE, LIVER, S-9, Method: STANDARD PLATE) “inactive; negative [0.3 to 1000 µg/plate] and active; positive [1 to 333 µg/plate]”; (Test System: AMES SALMONELLA TYPHIMURIUM, Strain/Indicator: TA1538, Metabolic Activation: NONE, Method: STANDARD PLATE) “inactive; negative [0.3 to 333.3 µg/plate] and active; positive [10 to 1000 µg/plate]”; (Test System: AMES SALMONELLA TYPHIMURIUM, Strain/Indicator: TA1538, Metabolic Activation: RAT, LIVER, S-9, Method: STANDARD PLATE) “inactive; negative [0.3 to 333.3 µg/plate] and active; positive [10 to 1000 µg/plate]”; (Test System: E. COLI, Strain/Indicator: WP2 UVRA, Metabolic Activation: HAMSTER, LIVER, S-9, AROCLOR 1254, Method: STANDARD PLATE) “inactive; negative [0.3 to 1000 µg/plate] and active; positive [1 to 1000 µg/plate]”. The mutagenic call under setting [7] was “inactive; negative [0.3 to 1000 µg/plate] and active; positive [1 to 1000 µg/plate]”.

With `Cc1ccc(N)cc1[N+](=O)[O-]`, under setting [6], the mutagenic call was “active; positive [study A] and inactive; negative [study B]”. Regarding `C[C@]12CC[C@@H]3c4ccc(O)cc4CC[C@H]3[C@@H]1CC[C@@H]2O`, the mutagenic call by setting is: (End Point: IN VITRO CHROMOSOMAL ABERRATIONS, Test System: HUMAN PERIPHERAL LYMPHOCYTES, Metabolic Activation: NONE) “active; positive [study A] and inactive; negative [study B] and inactive; negative [study C]”; (End Point: IN VITRO MICRONUCLEUS, Test System: MCF-7 (HUMAN MAMMARY CARCINOMA), Metabolic Activation: NONE) “active; positive and inactive; negative”. Regarding `N#CC(Cl)Cl`, the mutagenic call under setting [6] is “inactive; negative [study A] and active; positive [study B]”.

Regarding `CC(C)(Oc1ccc(C2CCCc3ccccc32)cc1)C(=O)O` (stereo not given), the mutagenic call by setting is: (End Point: IN VITRO CHROMOSOMAL ABERRATIONS, Test System: RAT HEPATOCYTES, Metabolic Activation: NONE) “active; positive; at highest concentration; also recorded: active; positive”; (End Point: IN VITRO MICRONUCLEUS, Test System: RAT HEPATOCYTES, Metabolic Activation: NONE) “inactive; negative and active; positive”. With `COC(=O)Nc1nc2ccc(C(=O)c3ccccc3)cc2[nH]1`, the mutagenic call under setting [5] was “inactive; negative and active; positive”. As for `c1cc2ccc3cccc4ncc(c1)c2c34`, the mutagenic call by setting is: under setting [3], “inactive; negative [study A] and active; positive [study B]”; under setting [4], “inactive; negative [study A] and active; positive [study B]”.

`Cc1ccccc1N=Nc1ccc(N=Nc2c(O)ccc3ccccc23)c(C)c1`: the mutagenic call is “inactive; negative and active; positive” (Test System: AMES SALMONELLA TYPHIMURIUM, Strain/Indicator: TA98, Metabolic Activation: RAT, LIVER, S-9, PCB, Method: PREINCUBATION); “inactive; negative and active; positive” (Test System: AMES SALMONELLA TYPHIMURIUM, Strain/Indicator: TA100, Metabolic Activation: RAT, LIVER, S-9, PCB, Method: PREINCUBATION). Consider `Nc1cc2c3ccccc3ccc2c2ccccc12`, for which the mutagenic call under setting [3] is “inactive; negative [study A] and active; positive [study B]”; the mutagenic call (Test System: AMES SALMONELLA TYPHIMURIUM, Strain/Indicator: TA98, Metabolic Activation: RAT, LIVER, CYTOSOL, Method: STANDARD PLATE) was “active; positive and inactive; negative”. Consider `O=[N+]([O-])c1ccc(Cl)cc1`, for which the mutagenic call reads like this: (End Point: IN VITRO CHROMOSOMAL ABERRATIONS, Test System: CHINESE HAMSTER OVARY CELLS, Metabolic Activation: NONE) “inactive; negative; also recorded: active; positive; precipitation occurred at 900 ug/ml”; (End Point: IN VITRO CHROMOSOMAL ABERRATIONS, Test System: CHINESE HAMSTER OVARY CELLS, Metabolic Activation: RAT, LIVER, S-9, AROCLOR 1254) “inactive; negative; precipitation occurred at 5000 ug/ml; also recorded: active; positive”. Regarding `Nc1cc(N)cc(Cl)c1`, the mutagenic call under setting [2] is “active; positive (structural and ploidy changes); also recorded: inactive; negative”. As to `CC(C)NCC1CCc2cc(CO)c([N+](=O)[O-])cc2N1` (stereo not given), the mutagenic call under setting [4] was “inactive; negative [study A] and active; positive [study B]”. Consider `ClCC(Cl)(Cl)Cl`, for which the mutagenic call (End Point: IN VITRO CHROMOSOMAL ABERRATIONS, Test System: CHINESE HAMSTER LUNG FIBROBLAST CELLS (CHL/IU), Metabolic Activation: NONE) was “active; positive (ploidy) and inactive; negative”.

Consider `CCOS(C)(=O)=O`, for which the mutagenic call is, setting by setting: (Test System: E. COLI, Strain/Indicator: WP2 UVRA, Metabolic Activation: NONE, Method: STANDARD PLATE) “active; positive [study A] and inactive; negative [study B]”; under setting [7], “active; positive [study A] and inactive; negative [study B]”.

As for `Cc1ccc(C(C)C)cc1O`, the mutagenic call (End Point: In vivo chromosomal aberrations, Test System: Bone marrow cells, Species: Rat, Strain/Sex: Sprague-Dawley/Male, Route: Intraperitoneal) was “active; positive (structural changes; numerical changes not dose-related); also recorded: active; positive (structural changes); also recorded: active; positive (structural and numerical changes)”.
